# Hit rate of the full screen: of about 310,000 compounds, about 2,200 (0.71%) showed an effect of 50% or more. The effect is printed as a negative number. The list shows a part of the results.
# Biological target: human ether-à-go-go-related gene (hERG) potassium channel (human, UniProt Q12809)
# Assay: primary screen, population patch clamp on CHO cells stably expressing hERG
# Chain of human ether-à-go-go-related gene (hERG) potassium channel (Q12809 whole entry, looked up): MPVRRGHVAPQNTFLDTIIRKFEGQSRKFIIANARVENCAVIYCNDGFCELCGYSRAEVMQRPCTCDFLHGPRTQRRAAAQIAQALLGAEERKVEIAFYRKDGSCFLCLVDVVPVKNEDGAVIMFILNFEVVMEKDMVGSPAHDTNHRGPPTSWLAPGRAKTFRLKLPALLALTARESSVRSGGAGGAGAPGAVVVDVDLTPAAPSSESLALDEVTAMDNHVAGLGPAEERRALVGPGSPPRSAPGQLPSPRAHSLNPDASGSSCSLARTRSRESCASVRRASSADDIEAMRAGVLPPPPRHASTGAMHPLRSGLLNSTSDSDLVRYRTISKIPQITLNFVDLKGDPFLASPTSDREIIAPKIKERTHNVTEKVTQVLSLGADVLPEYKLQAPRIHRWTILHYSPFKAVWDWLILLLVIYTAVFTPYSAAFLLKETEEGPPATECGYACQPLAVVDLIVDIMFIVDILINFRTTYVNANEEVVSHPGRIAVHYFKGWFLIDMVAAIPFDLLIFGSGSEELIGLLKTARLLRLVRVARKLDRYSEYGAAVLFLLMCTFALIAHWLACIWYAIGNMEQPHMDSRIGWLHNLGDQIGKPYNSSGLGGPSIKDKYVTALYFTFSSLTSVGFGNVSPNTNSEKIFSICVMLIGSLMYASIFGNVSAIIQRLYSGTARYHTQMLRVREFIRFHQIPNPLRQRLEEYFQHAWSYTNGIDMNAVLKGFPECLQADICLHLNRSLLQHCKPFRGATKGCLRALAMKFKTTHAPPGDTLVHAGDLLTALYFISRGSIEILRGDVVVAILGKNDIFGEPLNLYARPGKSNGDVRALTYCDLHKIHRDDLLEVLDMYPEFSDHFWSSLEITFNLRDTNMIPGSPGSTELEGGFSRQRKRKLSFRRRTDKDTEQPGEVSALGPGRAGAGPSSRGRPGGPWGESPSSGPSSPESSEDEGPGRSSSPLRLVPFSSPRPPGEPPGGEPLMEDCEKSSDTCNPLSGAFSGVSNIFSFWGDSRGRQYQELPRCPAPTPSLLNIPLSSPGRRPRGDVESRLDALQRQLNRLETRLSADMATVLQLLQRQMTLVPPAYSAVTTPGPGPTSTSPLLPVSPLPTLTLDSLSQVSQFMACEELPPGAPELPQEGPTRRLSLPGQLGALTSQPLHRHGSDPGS
row,SMILES,"hERG current change (%, negative = inhibition) at 1uM [%]"
1,OCC1(Cc2ccc(F)cc2)CCCN(Cc2ccc(F)cc2Cl)C1 (stereo not shown),7.26
2,CC(C)N(C(=O)CSc1nnc(-c2ccc3c(c2)OCO3)n1C)C(C)C,1.59
3,COc1cccc(OC)c1C(=O)NNC(=O)c1cccc(COc2ccc3c(c2)CCC3)c1,9.63
4,CCOC(=O)c1ccccc1NC(=O)CC(C)CC(=O)O (stereo not shown),12
5,COc1ccc(NC(=O)CN2CCN(c3c(C)cccc3C)CC2)cc1,6.72
6,COc1ccccc1/C=N/NC(=O)C(=O)N1CCN(c2ccccc2OC)CC1,3.98
7,Cc1ccc(-c2ccc(C#N)c(=O)n2CC(=O)N(C)C)cc1,7.14
8,CN1CCN(S(=O)(=O)c2ccc(Nc3cccc(Cl)c3)c([N+](=O)[O-])c2)CC1,1.38
9,COc1ccc(C(=O)N[C@H](C(=O)NCc2ccc(C)cc2)C(C)C)cc1,16.2
10,CCOC(=O)C1(Cc2ccc(Cl)cc2)CCN(C(=O)c2cnc(C)cn2)CC1,-14.5
11,COc1ccc(NC2=C(C(C)=O)C(c3ccccc3)C(C(C)=O)C(C)(O)C2)cc1 (stereo not shown),1.11
12,COc1ccccc1OCCOC(=O)Nc1ccccc1,19.6
13,COC(=O)c1sc(-c2ccc(C(C)(C)C)cc2)cc1NC(=O)/C=C/C(=O)O,2.94
14,CCOC(=O)c1[nH]c2ccc(OC)cc2c1NC(=S)N1CCN(c2ccccc2)CC1,7.6
15,O=C(NCc1ccccc1)/C(=C/c1ccc([N+](=O)[O-])cc1)NC(=O)c1ccco1,-31
16,O=C(CCn1c(=O)oc2ccccc21)NC1=NCCS1,7.01
17,Cc1ccc(CNC(=O)C2CCCN(S(=O)(=O)N3CC(C)CC(C)C3)C2)cc1 (stereo not shown),9.66
18,O=C(CC12CC3CC(CC(Br)(C3)C1)C2)Nc1nncs1,14.1
19,COC(=O)CSc1nc2sc(C)c(C)c2c(=O)n1C,-8.37
20,O=C(c1cc(S(=O)(=O)NCc2ccco2)ccc1Br)N1CCOCC1,-7.74
21,O=C(COC(=O)[C@@H]1CCCN1C(=O)c1cccs1)Nc1ccc(F)cc1[N+](=O)[O-],-10
22,CCOC(=O)c1c(NC(=O)C2CCCCC2)sc2c1CCN(CC)C2.Cl,-0.948
23,Cc1ccccc1NC(=O)C1CCCN(S(=O)(=O)c2ccc3c(c2)C(C)(C)C(=O)N3C)C1 (stereo not shown),15.6
24,CN(C)S(=O)(=O)c1cccc(C(=O)N=C2N=C3C=CC(Cl)=CN3Cc3ccccc32)c1,4.52
25,O=C1NCCN1C(=O)c1ccco1,7.74
26,O=C(O)CSCC(=O)N1CCCN(c2nc3ccc(Cl)cc3s2)CC1,8.31
27,O=C(CSc1ncn[nH]1)Nc1ccc(OCc2ccccc2)cc1,4.29
28,O=[N+]([O-])c1cc(S(=O)(=O)N2CCCC2)ccc1NCCc1ccccc1,13.5

row,SMILES,"hERG current change (%, negative = inhibition) at 1uM [%]"
1,CCOC(=O)c1c(S(=O)(=O)NCC(=O)Nc2ccc(C)cc2)c(C)n(C)c1C,12.4
2,COc1ccc(-n2c(=O)[nH]c3cc(C(=O)NCCc4ccccc4)ccc3c2=O)cc1OC,11.4
3,O=C(Cn1nc(Cc2cccnc2)c2ccccc2c1=O)Nc1cc(F)ccc1F,2.53
4,CCCC1(C(=O)OCC)NC(c2cc(OC)c(OC)c(OC)c2)C2C(=O)N(CC)C(=O)C21 (stereo not shown),16.1
5,CC1(C)CC(=O)C2=C(C1)N(c1ccc(F)cc1)C(=O)CC2c1ccsc1 (stereo not shown),-8.49
6,Cc1cc(C)cc(OCC(=O)NC(C)c2ccccc2)c1 (stereo not shown),11.8
7,NC(=O)CC(NC(=O)Cc1ccc(Cl)cc1)c1ccc(NC2CCCCCCC2)c([N+](=O)[O-])c1 (stereo not shown),16.3
8,COCCn1c(SCC(=O)Nc2ccccc2OC)nc2c(oc3ccccc32)c1=O,-6.69
9,N#Cc1cc2c(nc1SCC(=O)Nc1cc(Cl)ccc1Cl)C1CCN2CC1,-12.9
10,CCOC(=O)C1CCN(C(=O)Cn2nc(C)n3nc(-c4ccc(OC)cc4)cc3c2=O)CC1,12.1
11,O=C(NCCCN1CCOCC1)C(c1ccccc1)c1ccccc1,14.5
12,Fc1ccc(C2CCCN2Cc2nc(Cc3ccccc3F)no2)cc1 (stereo not shown),5.17
13,COc1cc(CN2CCC(CO)(CCOc3ccccc3)CC2)cc(OC)c1OC,3.71
14,CC(=O)Nc1sc(N/N=C\c2cccc(Cl)c2)nc1-c1cccs1,-0.333
15,CCN1CCCC(Sc2nc3c([nH]2)c(=S)n(C)c(=O)n3C)C1 (stereo not shown),8.61
16,CC(C(=O)NCc1ccccc1)N1C(=O)c2ccccc2C1=O (stereo not shown),14.6
17,CCN(CC)CCN1c2ccccc2Sc2ccccc21.O=C(O)C(=O)O,-3.5
18,NC(=O)c1cnn(-c2cc(Oc3ccccc3)ncn2)c1N,4.14
19,O=C(C(=C1N(Cc2ccc(Cl)nc2)CCN1Cc1ccc(Cl)nc1)[N+](=O)[O-])C(Cl)Cl,2.72
20,CCn1cc(C(=O)N2CCCC(N3CCN(c4ccccc4C)CC3)C2)cn1 (stereo not shown),6.58
21,O=C(COC(=O)c1cc(=O)[nH]c2ccccc12)NCc1cccs1,5.07
22,C/C(=N\O)c1ccc(Cl)cc1Cl,5.29
23,Cc1ccc(CNS(=O)(=O)c2ccc(F)c(F)c2)n1C,14.7
24,O=C(CN(Cc1cccs1)C(=O)c1csnn1)NC1CCCC1,5.83
25,CC(c1ccco1)N(C(=O)c1ccc(F)cc1)c1ccccn1 (stereo not shown),17.6
26,Cn1nnnc1Sc1ncnc2scc(-c3ccccc3)c12,-4.67
27,CCOC(=O)Cc1csc(NC(=O)c2cc(C)cc(C)c2)n1,1.67

# — paper PMC4336329 (PLoS ONE, 2015)
